# Test results from the supplement of paper PMC8728848.
# Some of the results follow.
# B1: CBM40 CPF071 (Clostridium perfringens) (protein)
# chain: MAHHHHHHVGTGSNDDDDKSPDPMLSSLGEYKDINLESSNASNITYDLEKYKNLDEGTIVVRFNSKDSKIQSLLGISNSKTKNGYFNFYVTNSRVGFELRNQKNEGNTQNGTENLVHMYKDVALNDGDNTVALKIEKNKGYKLFLNGKMIKEVKDTNTKFLNNIENLDSAFIGKTNRYGQSNEYNFKGNIGFMNIYNEPLGDDYLLSKTGETK
# How the values were obtained:
# Assay in all cases: glycan array binding signal (z-score within array); higher = stronger binding
# Settings in all cases: glycan notation: IUPAC condensed, linker removed
# [1] = biological target: Neu5Ac(a2-6)Gal(b1-4)GlcNAc(b1-2)Man(a1-3)[Neu5Ac(a2-3)Gal(b1-4)GlcNAc(b1-2)Man(a1-6)]Man(b1-4)GlcNAc(b1-4)GlcNAc
# Summary of the method: (§1)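 Glycan array binding is given as a within-array Z-score, which can be read as non-binding when negative. The arrays, 3228 of them, came from the Consortium for Functional Glycomics database and were retained only where the protein sequence was available. Z-scores were averaged across arrays of the same protein sequence at different concentrations or buffers and across linkers.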
# [2] = biological target: Neu5Ac(a2-6)Gal(b1-4)GlcNAc(b1-2)Man(a1-3)[Neu5Ac(a2-6)Gal(b1-4)GlcNAc(b1-2)Man(a1-6)]Man(b1-4)GlcNAc(b1-4)GlcNAc
# Summary of the method: as §1
# [3] = biological target: Neu5Ac(a2-6)Gal(b1-4)GlcNAc(b1-2)Man(a1-3)[Neu5Ac(a2-6)Gal(b1-4)GlcNAc(b1-2)Man(a1-6)]Man(b1-4)GlcNAc(b1-4)[Fuc(a1-6)]GlcNAc
# Summary of the method: as §1
# [4] = biological target: Neu5Ac(a2-6)Gal(b1-4)GlcNAc(b1-2)Man(a1-6)Man(b1-4)GlcNAc(b1-4)GlcNAc
# Summary of the method: as §1
# [5] = biological target: Neu5Ac(a2-6)Gal(b1-4)GlcNAc(b1-2)Man(a1-6)[Gal(b1-4)GlcNAc(b1-2)Man(a1-3)]Man(b1-4)GlcNAc(b1-4)GlcNAc
# Summary of the method: as §1
# [6] = biological target: Neu5Ac(a2-6)Gal(b1-4)GlcNAc(b1-2)Man(a1-6)[GlcNAc(b1-2)Man(a1-3)]Man(b1-4)GlcNAc(b1-4)GlcNAc
# Summary of the method: as §1
# [7] = biological target: Neu5Ac(a2-6)Gal(b1-4)GlcNAc(b1-2)Man(a1-6)[Man(a1-3)]Man(b1-4)GlcNAc(b1-4)GlcNAc
# Summary of the method: as §1
# [8] = biological target: Neu5Ac(a2-6)Gal(b1-4)GlcNAc(b1-2)[Neu5Ac(a2-6)Gal(b1-4)GlcNAc(b1-4)]Man(a1-3)[GlcNAc(b1-4)][Neu5Ac(a2-6)Gal(b1-4)GlcNAc(b1-2)[Neu5Ac(a2-6)Gal(b1-4)GlcNAc(b1-6)]Man(a1-6)]Man(b1-4)GlcNAc(b1-4)GlcNAc
# Summary of the method: as §1
# [9] = biological target: Neu5Ac(a2-6)Gal(b1-4)GlcNAc(b1-2)[Neu5Ac(a2-6)Gal(b1-4)GlcNAc(b1-4)]Man(a1-3)[GlcNAc(b1-4)][Neu5Ac(a2-6)Gal(b1-4)GlcNAc(b1-4)Man(a1-6)]Man(b1-4)GlcNAc(b1-4)GlcNAc
# Summary of the method: as §1
# [10] = biological target: Neu5Ac(a2-6)Gal(b1-4)GlcNAc(b1-2)[Neu5Ac(a2-6)Gal(b1-4)GlcNAc(b1-6)]Man(a1-6)[Neu5Ac(a2-6)Gal(b1-4)GlcNAc(b1-2)Man(a1-3)][GlcNAc(b1-4)]Man(b1-4)GlcNAc(b1-4)GlcNAc
# Summary of the method: as §1
# [11] = biological target: Neu5Ac(a2-6)Gal(b1-4)GlcNAc(b1-3)Gal(b1-3)GlcNAc
# Summary of the method: as §1
# [12] = biological target: Neu5Ac(a2-6)Gal(b1-4)GlcNAc(b1-3)Gal(b1-4)GlcNAc
# Summary of the method: as §1
# [13] = biological target: Neu5Ac(a2-6)Gal(b1-4)GlcNAc(b1-3)Gal(b1-4)GlcNAc(b1-2)Man(a1-3)[Neu5Ac(a2-6)Gal(b1-4)GlcNAc(b1-3)Gal(b1-4)GlcNAc(b1-2)Man(a1-6)]GalNAc
# Summary of the method: as §1
# [14] = biological target: Neu5Ac(a2-6)Gal(b1-4)GlcNAc(b1-3)Gal(b1-4)GlcNAc(b1-3)Gal(b1-4)GlcNAc
# Summary of the method: as §1
# [15] = biological target: Neu5Ac(a2-6)Gal(b1-4)GlcNAc(b1-3)Gal(b1-4)GlcNAc(b1-3)Gal(b1-4)GlcNAc(b1-2)Man(a1-3)[Neu5Ac(a2-6)Gal(b1-4)GlcNAc(b1-3)Gal(b1-4)GlcNAc(b1-3)Gal(b1-4)GlcNAc(b1-2)Man(a1-6)]GalNAc
# Summary of the method: as §1
# [16] = biological target: Neu5Ac(a2-6)Gal(b1-4)GlcNAc(b1-3)Gal(b1-4)GlcNAc(b1-3)GalNAc
# Summary of the method: as §1
# [17] = biological target: Neu5Ac(a2-6)Gal(b1-4)GlcNAc(b1-3)Gal(b1-4)GlcNAc(b1-3)[Neu5Ac(a2-6)Gal(b1-4)GlcNAc(b1-3)Gal(b1-4)GlcNAc(b1-6)]GalNAc
# Summary of the method: as §1
# [18] = biological target: Neu5Ac(a2-6)Gal(b1-4)GlcNAc(b1-3)Gal(b1-4)GlcNAc(b1-6)[Gal(b1-3)]GalNAc
# Summary of the method: as §1
# [19] = biological target: Neu5Ac(a2-6)Gal(b1-4)GlcNAc(b1-3)Gal(b1-4)[Fuc(a1-3)]GlcNAc(b1-3)Gal(b1-4)[Fuc(a1-3)]GlcNAc
# Summary of the method: as §1
# [20] = biological target: Neu5Ac(a2-6)Gal(b1-4)GlcNAc(b1-3)GalNAc
# Summary of the method: as §1
# [21] = biological target: Neu5Ac(a2-6)Gal(b1-4)GlcNAc(b1-3)[Neu5Ac(a2-6)Gal(b1-4)GlcNAc(b1-6)]GalNAc
# Summary of the method: as §1
# [22] = biological target: Neu5Ac(a2-6)Gal(b1-4)GlcNAc(b1-6)GalNAc
# Summary of the method: as §1
# [23] = biological target: Neu5Ac(a2-6)Gal(b1-4)GlcNAc(b1-6)[Gal(b1-3)GlcNAc(b1-3)]Gal(b1-4)Glc
# Summary of the method: as §1
# [24] = biological target: Neu5Ac(a2-6)Gal(b1-4)GlcNAc(b1-6)[Gal(b1-3)]GalNAc
# Summary of the method: as §1
# [25] = biological target: Neu5Ac(a2-6)Gal(b1-4)GlcNAc6S
# Summary of the method: as §1
# Neu5Ac(a2-6)GalNAc = biological target: Neu5Ac(a2-6)GalNAc
# Summary of the method: as §1
# [26] = biological target: Neu5Ac(a2-6)GalNAc(b1-4)GlcNAc
# Summary of the method: as §1
# [27] = biological target: Neu5Ac(a2-6)GalNAc(b1-4)GlcNAc6S
# Summary of the method: as §1
# [28] = biological target: Neu5Ac(a2-6)GlcNAc(b1-4)GlcNAc
# Summary of the method: as §1
# [29] = biological target: Neu5Ac(a2-6)GlcNAc(b1-4)GlcNAc(b1-4)GlcNAc
# Summary of the method: as §1
binder,measurement,setting,value
B1,glycan array binding signal (z-score),[1],0
same,glycan array binding signal (z-score),[2],0.954
same,glycan array binding signal (z-score),[3],1.42
same,glycan array binding signal (z-score),[4],-0.418
same,glycan array binding signal (z-score),[5],-0.484
same,glycan array binding signal (z-score),[6],0.107
same,glycan array binding signal (z-score),[7],-0.197
same,glycan array binding signal (z-score),[8],0.051
same,glycan array binding signal (z-score),[9],0.128
same,glycan array binding signal (z-score),[10],-0.409
same,glycan array binding signal (z-score),[11],-0.359
same,glycan array binding signal (z-score),[12],0.645
same,glycan array binding signal (z-score),[13],-0.258
same,glycan array binding signal (z-score),[14],-0.532
same,glycan array binding signal (z-score),[15],0.854
same,glycan array binding signal (z-score),[16],0.252
same,glycan array binding signal (z-score),[17],-0.308
same,glycan array binding signal (z-score),[18],0.025
same,glycan array binding signal (z-score),[19],-0.094
same,glycan array binding signal (z-score),[20],0.244
same,glycan array binding signal (z-score),[21],0.449
same,glycan array binding signal (z-score),[22],-0.376
same,glycan array binding signal (z-score),[23],-0.069
same,glycan array binding signal (z-score),[24],-0.217
same,glycan array binding signal (z-score),[25],0.003
same,glycan array binding signal (z-score),Neu5Ac(a2-6)GalNAc,-0.585
same,glycan array binding signal (z-score),[26],0.11
same,glycan array binding signal (z-score),[27],-0.288
same,glycan array binding signal (z-score),[28],0.243
same,glycan array binding signal (z-score),[29],-0.179
